Test results reported in PubChem BioAssay AID463173 (ICCB-Longwood Screening Facility, Harvard Medical School, 2010).
The whole screen tested about 52,000 compounds, of which about 1,700 (3.3%) were called active. Rule as the data show it: active = survival mostly below about 52% (no sharp cut-off); inactive = mostly above about 56%. This is one part of the list.

Tested on: Wild type
Assay: S. aureus survival, RN4220 and DeltatarO strains – OD600, teichoic acid synthesis inhibitors, primary screen (AID 463173)
Details: S. aureus RN4220 wild type/DeltatarO growth, OD600, 18 h, hits give low values, screened at 18.75 µg/mL (by protocol)

Compound	survival
Cc1ccc(Cn2c(=O)c3ccccc3n3c(-c4ccccc4)nnc23)cc1	inactive: 91%
CCc1ccc(CNC(=O)CSCc2cnn(-c3ccccc3)c2-n2cccc2)cc1	inactive: 59%
Cc1ccc(OCC(=O)Nc2ccc3nc(SCC(=O)N4CCCC4)sc3c2)cc1C	inactive: 85%
CCOC(=O)C1=C(C)N(C)C(c2ccccc2)(C(F)(F)F)NC1=O (centres undefined)	inactive: 104%
COc1ccc(NC(=O)CCCS(=O)(=O)c2nc(-c3ccc(OC)c(OC)c3)cc(C(F)(F)F)n2)cc1OC	inactive: 82%
O=C(Nc1ccc2c(c1)N(C1CCCC1)C(=O)c1ccccc1S2)c1ccccc1	inactive: 75%
N=C(N=Nc1c(O)n(Cc2ccccc2)c2ccccc12)SCC(=O)Nc1ccccc1	inactive: 110%
Cc1ccc(Cl)cc1NC(=O)CCS(=O)(=O)c1ccc(Br)s1	inactive: 78%
Cc1ccc(N2CC(C(=O)OCC(=O)C(C)(C)C)CC2=O)cc1 (centres undefined)	inactive: 101%
COc1ccc(CCNC(=O)C(=O)NCC(c2cccs2)S(=O)(=O)c2ccccc2)cc1 (centres undefined)	inactive: 152%
Cc1ccc(SCC(=O)Nc2ccc3oc(-c4cccc(C)c4)nc3c2)cc1	inactive: 96%
COc1cccc(-c2nc(CS(=O)CC(=O)N3CCN(c4cccc(C(F)(F)F)c4)CC3)c(C)o2)c1 (centres undefined)	active: -2%
O=C(Cn1cnc2c(cnn2-c2ccccc2)c1=O)N1CCCc2ccccc21	inactive: 107%
CC1(C)CC(=O)C2=C(C1)N(CC(=O)O)C1=C(C(=O)CC(C)(C)C1)C2c1ccccc1	inactive: 105%
CC(C(=O)NCc1ccco1)N1C(=O)c2ccccc2C1=O (centres undefined)	inactive: 107%
CCN1C(=O)CC(C(=O)Nc2ccc(OC)cc2)SC1=Nc1ccc(C)c(C)c1 (centres undefined)	inactive: 74%
O=C(Cn1cc(SCc2ccccc2Cl)c2ccccc21)N1CCCCCC1	inactive: 83%
COc1ccc(OC)c(CNS(=O)(=O)c2ccc(-c3cc(C(F)(F)F)on3)s2)c1	active: -6%
CCOC(=O)c1noc2ncn(CC(=O)O)c(=O)c12	inactive: 68%
O=C(NCCC1=CCCCC1)c1ccc2c(c1)N(Cc1ccccc1)C(=O)c1ccccc1S2(=O)=O	inactive: 95%
Cc1ccc(CNC(=O)CN(c2cc(C)cc(C)c2)S(=O)(=O)c2c(C)[nH]c(=O)[nH]c2=O)cc1	inactive: 89%
Cc1ccc(N2CCN(C(=O)c3nn(C)c4c3CSc3ccccc3-4)CC2C)cc1 (centres undefined)	inactive: 61%
O=C(NC1CCCC1)c1ccc2c(c1)N(Cc1ccc(F)cc1)C(=O)c1ccccc1S2	inactive: 81%
CCc1ccc(C2c3c(n[nH]c3C)C(=O)N2c2ccc(C)cc2)cc1 (centres undefined)	inactive: 44%
